Results taken from paper PMC3063768, “Rhesus TRIM5α Disrupts the HIV-1 Capsid at the Inter-Hexamer Interfaces” (PLoS Pathogens, 2011).

B1: Human TRIM5α coiled-coil and SPRY domains (TRIM5αhu CC-SPRY, […]) (domain or fragment)
chain: not shown
notes: TRIM5α, human, coiled-coil and B30.2/SPRY domains, […]; Dimer by SEC-MALS (89 kDa observed, 45.6 kDa theoretical); also called human TRIM5α CC-SPRY; source: SF21 insect cells, recombinant baculovirus, purified (Ni-NTA, Superdex 200, Hi-Trap QP or StrepTrap-HP)
B2: Rhesus macaque TRIM5α coiled-coil and SPRY domains (TRIM5αrh CC-SPRY, […]) (domain or fragment)
chain: not shown
notes: TRIM5α, rhesus macaque, coiled-coil and B30.2/SPRY domains, […]; Dimer by SEC-MALS (92 kDa observed, 46.1 kDa theoretical); The C-terminal His tag was used for Ni-NTA-Nanogold labelling; also called CC-SPRYrh; rhesus TRIM5α CC-SPRY; source: SF21 insect cells, recombinant baculovirus, purified (Ni-NTA, Superdex 200, Hi-Trap QP or StrepTrap-HP); not shown: His6, C-terminal, kept

Target: the molecule itself
Assay: SEC-MALS; analytical Superdex200 with in-line multi-angle light scattering; about 100 µL of 2 mg/mL protein; 25 mM sodium phosphate pH 7.5, 250 mM NaCl, 10% glycerol, 0.02% sodium azide

Protein | stoichiometry N
B1 | 2
B2 | 2
